Measured values as given in paper PMC4336329 (PLoS ONE, 2015).
Among all 310,000 compounds or so, about 2,200 (0.71%) showed an effect of 50% or more. Effects have a minus sign here. This is one part of the list.

What follows are compounds tested against human ether-à-go-go-related gene (hERG) potassium channel (human, UniProt Q12809) (assay: primary screen, population patch clamp on CHO cells stably expressing hERG).
human ether-à-go-go-related gene (hERG) potassium channel, sequence (Q12809 whole entry, looked up): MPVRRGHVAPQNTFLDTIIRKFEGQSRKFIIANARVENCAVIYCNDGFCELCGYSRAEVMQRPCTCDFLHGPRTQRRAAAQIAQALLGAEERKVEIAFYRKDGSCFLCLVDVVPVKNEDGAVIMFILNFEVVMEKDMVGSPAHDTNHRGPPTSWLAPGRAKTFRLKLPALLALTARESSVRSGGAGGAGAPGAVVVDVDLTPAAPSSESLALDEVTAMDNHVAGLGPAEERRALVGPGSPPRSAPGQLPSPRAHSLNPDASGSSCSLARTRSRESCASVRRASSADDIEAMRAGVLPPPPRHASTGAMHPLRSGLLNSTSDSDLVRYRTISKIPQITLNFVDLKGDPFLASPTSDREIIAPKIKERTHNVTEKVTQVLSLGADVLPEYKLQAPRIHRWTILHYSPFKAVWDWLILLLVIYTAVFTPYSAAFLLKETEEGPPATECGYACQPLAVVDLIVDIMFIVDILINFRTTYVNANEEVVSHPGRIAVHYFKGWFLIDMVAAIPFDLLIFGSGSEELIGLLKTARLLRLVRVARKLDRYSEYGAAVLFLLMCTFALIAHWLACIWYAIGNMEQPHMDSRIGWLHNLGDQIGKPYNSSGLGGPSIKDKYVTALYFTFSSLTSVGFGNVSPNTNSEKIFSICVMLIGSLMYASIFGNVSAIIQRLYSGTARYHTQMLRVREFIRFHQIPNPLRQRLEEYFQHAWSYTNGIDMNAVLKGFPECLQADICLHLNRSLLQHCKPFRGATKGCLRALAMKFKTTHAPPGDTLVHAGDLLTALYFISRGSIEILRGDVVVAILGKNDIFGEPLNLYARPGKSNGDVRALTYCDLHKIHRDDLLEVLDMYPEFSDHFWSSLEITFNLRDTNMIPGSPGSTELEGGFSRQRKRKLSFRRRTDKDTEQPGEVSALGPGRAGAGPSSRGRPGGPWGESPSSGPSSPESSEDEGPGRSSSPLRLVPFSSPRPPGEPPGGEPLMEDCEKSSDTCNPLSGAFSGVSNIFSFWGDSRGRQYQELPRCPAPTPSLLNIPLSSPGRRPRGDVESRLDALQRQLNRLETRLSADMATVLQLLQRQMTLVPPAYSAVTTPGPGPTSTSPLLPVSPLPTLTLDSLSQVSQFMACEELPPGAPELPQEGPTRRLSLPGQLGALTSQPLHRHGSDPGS

Structure (SMILES) | hERG current change (%, negative = inhibition) at 1uM
CC(C)(Oc1ccc(Cl)cc1)C(=O)NCc1ccncc1 | 6.96%
COc1ccc(C(C(=O)NCc2ccccc2)N(C(=O)c2snc(C(N)=O)c2N)C2CCCC2)cc1 (stereo not drawn) | 6.13%
Cc1ccc(CN(CC(=O)NCCc2ccccc2)C(=O)c2csnn2)cc1 | -1.37%
CC(C(=O)O)c1ccc(N2Cc3ccccc3C2=O)cc1 (stereo not drawn) | 18.7%
COc1ccccc1NC(=S)N1CCC(c2nc3ccccc3o2)CC1 | 2.22%
CSCC[C@H](NC(=O)OC(C)(C)C)c1nnc(SCC(=O)N(C)C)o1 | 10.3%
O=C(Nc1ccc(Cl)c(S(=O)(=O)N2CCCCC2)c1)c1cnccn1 | -2.78%
O=S(=O)(Nc1nc2c(s1)CCCC2)c1ccc2ccccc2c1 | 13.4%
COc1ccc(OCCCC(=O)Nc2nc(-c3ccccn3)cs2)cc1 | 9.37%
CCCCCc1cc(=O)oc2c(C(CCN3CCCCC3)c3ccc4c(c3)OCO4)c(OC)cc(OC)c12 (stereo not drawn) | 6.72%
COc1cc(C(=O)Nc2cc(-c3ccccc3)[nH]n2)cc(OC)c1OC | -2.63%
Cc1ccc(OCC(=O)N/N=C2/SCC(=O)N2Cc2ccccc2)cc1 | 0.612%
COCCNC(=O)C(c1cccnc1)N(Cc1ccccc1)C(=O)Cn1nnc2ccccc21 (stereo not drawn) | 9.91%
Cc1ccc(/C=N/NC(=O)c2nnn(-c3nonc3N)c2CN(C)C)o1 | 15.8%
COc1ccnc(N=CNOCc2cccc(C(F)(F)F)c2)c1C#N | 12.8%
Cc1cccc(-c2ncc(CN3CCN(CCC(C)C)C(CCO)C3)cn2)c1 (stereo not drawn) | -17.4%
Cc1[nH]ccc(=O)c1OCc1ccc(Cl)cc1 | 4.38%
COc1cc(CNCc2cccnc2)ccc1OCC(=O)NC(C)(C)C.Cl | 3.14%
O=C(Cc1ccccc1)NCCS(=O)(=O)N1CCN(c2cccc(Cl)c2)CC1 | -48%
CC1(C)CC2CC(C)(CN2C(=O)COC(=O)Cn2[nH]c(=O)c3ccccc3c2=O)C1 (stereo not drawn) | 12.8%
CCCCC(=O)N1CCCC(c2nc3c(nnn3Cc3cc(C)ccc3C)c(=O)[nH]2)C1 (stereo not drawn) | 3.86%
COc1ccc(OC)c(S(=O)(=O)Nc2ccc3[nH]c(=O)[nH]c3c2)c1 | 10.8%

Structure (SMILES) | hERG current change (%, negative = inhibition) at 1uM
COc1cc(OC)cc(C(=O)NCC(=O)OCc2csc(-c3ccccc3)n2)c1 | 7.32%
COc1ccc(-c2cc(-c3ccccc3)no2)cc1 | 11.1%
COc1ccc(S(=O)(=O)N2CCC(C(=O)NCc3ccco3)CC2)cc1 | -1.25%
COc1cc(C2C(C#N)=C(N)Oc3n[nH]c(-c4ccccn4)c32)cc(OC)c1OC (stereo not drawn) | 4.5%
COC(=O)CCc1cccc(CCC(=O)OC)c1 | 8.75%
O=C(O)c1cccc(NC(=S)N/N=C/c2ccccc2OCc2ccc(Br)cc2)c1 | -6.99%
CC(C)Oc1cccc(C(=O)C2CCCN(S(C)(=O)=O)C2)c1 (stereo not drawn) | 10.2%
CCN(CC)S(=O)(=O)c1ccc(OC)c(NC(=S)Nc2cccc(C)c2C)c1 | 1.79%
CC1CC(C)CN(C(=O)CNS(=O)(=O)c2ccc(Br)s2)C1 (stereo not drawn) | 10.5%
O=c1[nH]c(O)c(C=Nc2ccccc2Oc2ccccc2)c(=O)[nH]1 | 8.3%
O=C(NC1CCCCCCC1)c1cc([N+](=O)[O-])ccc1Cl | 6.96%
CSCC[C@H](NC(=O)c1cccc([N+](=O)[O-])c1C)c1nc2ccccc2[nH]1 | 1.04%
Cc1c(/C=C(\C#N)c2nn(-c3ccccc3)c(N)c2C#N)c2ccccc2n1Cc1ccc(F)cc1 | 1.42%
CCOC(=O)CN1C(=O)C(O)=C(C(C)=O)C1c1ccc(F)cc1 (stereo not drawn) | 9.29%
Cc1cc(C(=O)Nc2c(C)n(C)n(-c3ccccc3)c2=O)c(C)o1 | 19.2%
Cc1ccc2cccc(SCC(=O)NCC#N)c2n1 | 11.3%
CCOc1ccccc1NC(=O)C(OC(=O)C1CC1)c1ccccc1 (stereo not drawn) | 6.2%
CCOC(=O)C1=C(C)N(C)C(=O)NC1c1cccc2ccccc12 (stereo not drawn) | 2.68%
N#CC1=C(SCC(=O)c2ccc(Cl)cc2)NC2=C(C(=O)CCC2)C1c1ccco1 (stereo not drawn) | 2.99%
CCCN1CN(CCc2ccccc2)CNC1=S | 5.74%
CC(=O)NCCc1nc2cc(NS(=O)(=O)c3ccc(Cl)cc3)ccc2n1C | 10.8%
CC(=O)c1cccc(CN2CCCC(C(=O)Nc3ccc(-c4ccco4)cc3)C2)c1 (stereo not drawn) | 14.3%

Structure (SMILES) | hERG current change (%, negative = inhibition) at 1uM
O=C(CSc1nnc(C2CC2)n1Cc1ccccc1)c1cc2ccccc2o1 | 8.33%
CCCOc1ccc(NC(=O)CC2Nc3ccccc3NC2=O)cc1 (stereo not drawn) | 14.9%
O=[N+]([O-])c1cc2c(cc1/C=N/NS(=O)(=O)c1ccc(Br)cc1)OCO2 | 7.16%
COC(=O)c1sccc1NC(=O)c1cc2c(s1)CCCC2 | 5.75%
C=CCN1C(=O)c2ccc(C(=O)N(C)CC(=O)Nc3ccc(Br)cc3C)cc2C1=O | 3.86%
COc1ccc(C(=O)Nc2ccc(S(=O)(=O)Nc3nccnc3OC)cc2)cc1 | 3.99%
CC(C)C(NS(=O)(=O)c1cccc2nsnc12)C(=O)Nc1nccs1 (stereo not drawn) | -10.8%
O=C(COC(=O)c1ccccn1)Nc1cccnc1Cl | 11.2%
CCc1cc(=O)n2[nH]c(-c3ccccc3)c(-c3ccccc3)c2n1 | 12.7%
Cc1ccc(Cl)cc1N1CCN(Cc2nnnn2C2CCCCC2)CC1 | 14.2%
COc1ccc(/C=C(\C#N)C(=O)Nc2cc(S(=O)(=O)N3CCOCC3)ccc2N2CCCC2)cc1 | 4.36%
CCn1c(=O)c(C(=O)NCCc2ccc(OC)c(OC)c2)c(O)c2ccccc21 | 8.62%
CC12CCC(C(=O)N/N=C/c3ccc(O)cc3)(OC1=O)C2(C)C (stereo not drawn) | 14.4%
CC(=O)c1ccc(NS(=O)(=O)c2cc(-c3cnc(C4CC4)o3)ccc2C)cc1 | 13.6%
Nc1nc(Cl)cc(=O)n1Cc1ccc(Cl)cc1 | 13.5%
O=C(NC(=S)Nc1ccc2c(c1)OCCO2)c1ccco1 | 11.5%
CCc1cc2cccc(C)c2nc1SCC(=O)Nc1cc(C)on1 | 17.9%
O=C(CN1CCOCC1)NNC(=S)Nc1ccc(Cl)cc1 | 8.35%
O=C(NNC(=O)c1ccc2ccccc2c1)Nc1ccc(F)cc1 | 4.14%
CC(=O)Nc1c(O)nc(SCc2ccc(Cl)cc2)[nH]c1=O | 13.2%
O=C(Nc1c(O)c2ccccc2[nH]c1=O)c1ccco1 | 7.31%
O=C(N/C(=C\c1cccs1)C(=O)N1CCOCC1)c1cccs1 | 6.69%

Structure (SMILES) | hERG current change (%, negative = inhibition) at 1uM
Cc1occc1C(=O)N/N=C/c1ccc(-c2ccccc2)cc1 | 10.3%
COCCC(=O)Nc1ccc2c(c1)CN(C(=O)CCSC)CC2 | 9.01%
O=C(CCS(=O)(=O)c1ccc2c(c1)NC(=O)CS2)NCCc1ccc(Cl)cc1 | 10%
CC(C)C(NC(=O)c1ccccc1Cl)C(=O)OCc1nc2scc(-c3ccccc3Cl)c2c(=O)[nH]1 (stereo not drawn) | 18.1%
CCCNC(=O)Nc1ccc2c(c1)N(C)C(=O)c1ccccc1S2 | -10.5%
N#Cc1nc(-c2ccc(Cl)cc2)oc1NCC1CCCO1 (stereo not drawn) | 5.31%
Cn1nc(C(=O)Nc2ccc(S(=O)(=O)N3CCOCC3)cc2)c2ccccc2c1=O | 12%
COc1ccc(NC2CCCN(C(=O)c3cccs3)C2)cc1 (stereo not drawn) | 12.5%
CCOC(=O)c1c(NC(=O)C2C3CCC(O3)C2C(=O)O)sc2c1CCC(CC)C2 (stereo not drawn) | -1.94%
CCOC(=O)N1CCN(c2cc(=O)n(Cc3ccc(F)cc3)c(=O)[nH]2)CC1 | -0.722%
COc1ccc(CCn2c(=N)c(S(=O)(=O)c3ccc(C)cc3)cc3c(=O)n4ccccc4nc32)cc1 | 14.5%
Cc1oc2cc(Br)c(O)c(Br)c2c1-c1ccccc1 | -3.56%
Cc1cc(C(=O)CSc2ncccn2)c(C)n1Cc1ccco1 | 12.3%
COc1ccc2[nH]c(C)c(C(=O)CN3CCN(C/C=C/c4ccccc4)CC3)c2c1 | 5.17%
O=C(O)COc1ccccc1/C=N/NC(=O)CSc1nc2ccccc2s1 | 11.7%
NS(=O)(=O)c1ccc(Nc2nc(-c3ccc4ccccc4c3)cs2)cc1 | -11.9%
COc1ccccc1NS(=O)(=O)c1cccc(C(=O)N/N=C(\C)c2cccnc2)c1 | 2.47%
CCCn1c(N)c(N(CCOC)C(=O)COC(=O)c2ccccc2NCCO)c(=O)[nH]c1=O | 9.06%
CC(Oc1ccc(-c2ccccc2)cc1)C(=O)N1CCOCC1 (stereo not drawn) | 12.2%
C=CCNC(=S)Nc1ccc(N(C)C)cc1 | -5.92%
NS(=O)(=O)c1ccc(CNC(=O)CNC(=O)c2ccc(F)cc2)cc1 | 14.6%
